Source: article PMC6757366
Results are given in words; binding and its absence hold for the method and conditions named. Binding seen in cells or lysates may run through a third protein. Some binding calls cover weakened binding; strength is not graded here.

T1: CTCF (human) (UniProt P49711)
T1 sequence: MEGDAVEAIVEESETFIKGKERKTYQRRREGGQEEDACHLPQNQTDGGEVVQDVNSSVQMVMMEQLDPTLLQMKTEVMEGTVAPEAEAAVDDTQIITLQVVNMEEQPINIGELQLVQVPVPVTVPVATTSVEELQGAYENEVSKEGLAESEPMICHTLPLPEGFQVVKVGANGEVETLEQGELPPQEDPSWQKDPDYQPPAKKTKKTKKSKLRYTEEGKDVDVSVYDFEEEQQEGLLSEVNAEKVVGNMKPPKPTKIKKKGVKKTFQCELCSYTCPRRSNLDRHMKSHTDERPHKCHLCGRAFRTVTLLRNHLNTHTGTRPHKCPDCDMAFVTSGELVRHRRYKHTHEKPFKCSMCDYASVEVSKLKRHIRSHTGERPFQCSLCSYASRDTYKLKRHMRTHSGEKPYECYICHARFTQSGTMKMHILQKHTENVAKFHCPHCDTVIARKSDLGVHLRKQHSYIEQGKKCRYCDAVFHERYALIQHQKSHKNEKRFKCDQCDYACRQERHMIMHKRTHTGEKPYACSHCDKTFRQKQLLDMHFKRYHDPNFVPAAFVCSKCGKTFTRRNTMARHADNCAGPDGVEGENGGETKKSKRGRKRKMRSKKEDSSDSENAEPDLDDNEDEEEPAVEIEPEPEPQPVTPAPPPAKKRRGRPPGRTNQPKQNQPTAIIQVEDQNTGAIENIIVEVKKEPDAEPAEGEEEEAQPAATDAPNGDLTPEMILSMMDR

T2: CGGBP1 (human) (UniProt Q9UFW8)
T2 sequence: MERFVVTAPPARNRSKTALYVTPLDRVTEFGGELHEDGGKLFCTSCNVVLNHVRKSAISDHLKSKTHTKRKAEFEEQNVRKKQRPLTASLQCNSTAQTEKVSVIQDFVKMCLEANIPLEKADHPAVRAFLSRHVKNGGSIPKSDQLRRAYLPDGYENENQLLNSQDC


Experiments:
[1] = target: T1, CTCF (human); assay: co-IP; reciprocal co-IPs of endogenous proteins from cleared, pre-cleared whole cell lysates of human foreskin fibroblasts; Protein G Sepharose, washed four times with PBS, immunoblot
[2] = target: T1, CTCF (human); assay: co-IP; reciprocal co-IPs of endogenous proteins from lysates of serum-starved human dermal fibroblasts; Protein G Sepharose, immunoblot
[3] = target: T1, CTCF (human); assay: as above; remark: listed apart in the source
[4] = target: T1, CTCF (human); assay: co-IP; reciprocal co-IPs of endogenous proteins from lysates of human dermal fibroblasts stimulated after 48 h of serum starvation; Protein G Sepharose, immunoblot
[5] = target: T1, CTCF (human); assay: proximity ligation; Duolink PLA in fixed, permeabilised human juvenile fibroblasts; two different antibody pairs for CTCF and CGGBP1; IgG and no-primary-antibody controls
[6] = target: T1, CTCF (human); assay: co-IP; reciprocal co-IPs of endogenous proteins from HEK-293T cell lysates; Protein G Sepharose, immunoblot
[7] = target: T2, CGGBP1 (human); assay: co-IP; reciprocal co-IPs of endogenous proteins from cleared, pre-cleared whole cell lysates of human foreskin fibroblasts; Protein G Sepharose, washed four times with PBS, immunoblot
[8] = target: T2, CGGBP1 (human); assay: co-IP; reciprocal co-IPs of endogenous proteins from lysates of serum-starved human dermal fibroblasts; Protein G Sepharose, immunoblot
[9] = target: T2, CGGBP1 (human); assay: as above; remark: listed apart in the source
[10] = target: T2, CGGBP1 (human); assay: co-IP; reciprocal co-IPs of endogenous proteins from lysates of human dermal fibroblasts stimulated after 48 h of serum starvation; Protein G Sepharose, immunoblot
[11] = target: T2, CGGBP1 (human); assay: co-IP; co-IP from HEK-293T nuclear fraction (REAP protocol); washed beads digested with DNaseI (6 units, 10 min, room temperature), pellet (bead-bound) and supernatant (released) blotted
[12] = target: T2, CGGBP1 (human); assay: co-IP; reciprocal co-IPs of endogenous proteins from HEK-293T cell lysates; Protein G Sepharose, immunoblot

Binder | binding [1] | binding [2] | binding [3] | binding [4] | binding [5] | binding [6] | binding [7] | binding [8] | binding [9] | binding [10] | binding [11] | binding [12]
CGGBP1 (protein, UniProt Q9UFW8 1-167) MERFVVTAPPARNRSKTALYVTPLDRVTEFGGELHEDGGKLFCTSCNVVLNHVRKSAISDHLKSKTHTKRKAEFEEQNVRKKQRPLTASLQCNSTAQTEKVSVIQDFVKMCLEANIPLEKADHPAVRAFLSRHVKNGGSIPKSDQLRRAYLPDGYENENQLLNSQDC | binds | no binding (condition: serum-starved cells) | binds weakly | binds weakly | binds | binds |  |  |  |  |  | 
CTCF (protein, UniProt P49711 1-727) MEGDAVEAIVEESETFIKGKERKTYQRRREGGQEEDACHLPQNQTDGGEVVQDVNSSVQMVMMEQLDPTLLQMKTEVMEGTVAPEAEAAVDDTQIITLQVVNMEEQPINIGELQLVQVPVPVTVPVATTSVEELQGAYENEVSKEGLAESEPMICHTLPLPEGFQVVKVGANGEVETLEQGELPPQEDPSWQKDPDYQPPAKKTKKTKKSKLRYTEEGKDVDVSVYDFEEEQQEGLLSEVNAEKVVGNMKPPKPTKIKKKGVKKTFQCELCSYTCPRRSNLDRHMKSHTDERPHKCHLCGRAFRTVTLLRNHLNTHTGTRPHKCPDCDMAFVTSGELVRHRRYKHTHEKPFKCSMCDYASVEVSKLKRHIRSHTGERPFQCSLCSYASRDTYKLKRHMRTHSGEKPYECYICHARFTQSGTMKMHILQKHTENVAKFHCPHCDTVIARKSDLGVHLRKQHSYIEQGKKCRYCDAVFHERYALIQHQKSHKNEKRFKCDQCDYACRQERHMIMHKRTHTGEKPYACSHCDKTFRQKQLLDMHFKRYHDPNFVPAAFVCSKCGKTFTRRNTMARHADNCAGPDGVEGENGGETKKSKRGRKRKMRSKKEDSSDSENAEPDLDDNEDEEEPAVEIEPEPEPQPVTPAPPPAKKRRGRPPGRTNQPKQNQPTAIIQVEDQNTGAIENIIVEVKKEPDAEPAEGEEEEAQPAATDAPNGDLTPEMILSMMDR |  |  |  |  |  |  | binds | no binding (condition: serum-starved cells) | binds weakly | binds | binds | binds
